# Measured values as given in the BET-seq Pho4 binding data (Le et al. 2018).
# Some of the results follow. The energies were worked out here from pooled read counts, against the library average; single values are noisy.
# Target: T1, Pho4 (S. cerevisiae) (UniProt P07270)
# T1 sequence: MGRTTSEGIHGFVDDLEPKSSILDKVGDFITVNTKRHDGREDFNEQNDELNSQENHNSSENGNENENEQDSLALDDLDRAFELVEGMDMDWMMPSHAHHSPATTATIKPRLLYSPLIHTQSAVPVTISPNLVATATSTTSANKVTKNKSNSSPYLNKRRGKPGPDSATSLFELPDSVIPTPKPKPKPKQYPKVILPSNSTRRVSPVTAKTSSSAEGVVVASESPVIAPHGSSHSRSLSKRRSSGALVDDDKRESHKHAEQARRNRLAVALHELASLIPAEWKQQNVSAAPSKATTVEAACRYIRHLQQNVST
# Experiment: relative binding free energy (BET-seq); higher = weaker binding
# Settings: reference: library average
row,Sequence,relative binding free energy [kcal/mol]
1,TTGAACACGTGCTTTT,-0.07
2,TGCCGCACGTGGGGAG,-0.18
3,AGTTTCACGTGTAGTT,0.14
4,GTGAACACGTGAAGAG,0.4
5,CTTGGCACGTGATCGG,-0.09
6,TGCGCCACGTGTTAGG,-0.04
7,TGTGGCACGTGTTAGG,0.02
8,CTAGTCACGTGGTAAG,0.14
9,CGTGTCACGTGTTATA,0.09
10,CTAGTCACGTGTGGTA,0.1
11,TTATGCACGTGTGGTT,0.05
12,TTAGACACGTGGGAGG,-0.16
13,GTAGTCACGTGAATGG,0.41
14,CGATGCACGTGAGAGG,0.16
15,CGGGTCACGTGAGGTT,0.35
16,GGTGGCACGTGACTGA,-0.04
17,TGTTTCACGTGACATA,0.34
18,AATTGCACGTGAGGAA,0.2
19,AGTATCACGTGGATTT,0.3
20,ACGATCACGTGGGGTG,-0.04
21,TTAGTCACGTGTGCGC,0.14
22,AGTTTCACGTGTCGGC,0.33
23,AATATCACGTGGTTCT,0.06
24,AGTTACACGTGTGAAT,0.18
25,ATGGTCACGTGAGTCG,0.3
26,CGTGTCACGTGCTGGT,-0.08

row,Sequence,relative binding free energy [kcal/mol]
1,TTATGCACGTGAGACG,0.11
2,TTGTGCACGTGGAATC,0.05
3,GAGAGCACGTGCGTGT,-0.06
4,GAACTCACGTGGGTGT,0.2
5,TTCTACACGTGTTGGA,0.14
6,GCGTACACGTGTTGGA,0.16
7,AAATACACGTGATTGG,0.15
8,AGGATCACGTGGGATG,0.05
9,CGTAACACGTGGGTGC,-0.12
10,TGGCGCACGTGAGGGC,0.2
11,GGAAGCACGTGAGTGC,0.19
12,CTTTTCACGTGGCTTG,0.18
13,ATTGTCACGTGTTACT,0.05
14,GAGTACACGTGTTGTA,0.11
15,AGGTCCACGTGTATGT,-0.07
16,CGGATCACGTGTTGTT,0.22
17,TTGTGCACGTGATTCG,0.04
18,GGTGACACGTGGAAGT,0.12
19,TAAATCACGTGATGTA,0.22
20,ACGGACACGTGGGGGC,-0.1
21,AGGATCACGTGTGTGG,0.14
22,TGGAACACGTGTGGTC,0.11
23,GTGGGCACGTGGGGTT,-0.1
24,GTATTCACGTGAGATG,0.36
25,CCTGTCACGTGCGGGT,0.05
26,TGTGACACGTGTTGCG,0

row,Sequence,relative binding free energy [kcal/mol]
1,GTTTGCACGTGACTTG,0.06
2,TGGGGCACGTGGCACG,-0.19
3,TGAGTCACGTGATGAT,0.39
4,GGTGGCACGTGGACCG,-0.16
5,GTTGACACGTGGCTGG,0.09
6,GTTGACACGTGGGTAG,-0.05
7,TGGAACACGTGTTGTC,-0.06
8,CGGGGCACGTGGTCAG,-0.26
9,AAGGTCACGTGGAATA,0.25
10,GCAGGCACGTGGGTCT,-0.22
11,TAGGACACGTGTACTT,0.05
12,TGGAGCACGTGTTGGA,-0.04
13,GATGGCACGTGTTTGC,-0.1
14,GTCATCACGTGGTGTT,0.04
15,AGCAGCACGTGTGTTA,-0.03
16,TGAATCACGTGTGCAG,0.13
17,GAAGTCACGTGGAGGC,0.15
18,TTTGTCACGTGCTAAT,0.21
19,TCTCACACGTGTTGTG,0.11
20,GTGAGCACGTGTATTT,-0.06
21,ATTGGCACGTGGAATA,-0.16
22,TGGGGCACGTGGTACA,-0.32
23,ATGGGCACGTGAAGAA,0.23
24,ATGTACACGTGATCTT,0.09
25,GCAGTCACGTGGGCTT,0.01
26,AGTCTCACGTGGTGGT,0.05

row,Sequence,relative binding free energy [kcal/mol]
1,GGTTCCACGTGTTGTT,0.23
2,AAATTCACGTGTATGT,0.33
3,GATTACACGTGGTTGA,0.07
4,ATTAGCACGTGCTGTG,-0.09
5,AAGACCACGTGGTGTT,-0.05
6,TCTATCACGTGATTTT,0.29
7,AATTACACGTGTATAT,0.13
8,ACTGTCACGTGAATGG,0.31
9,TGTTCCACGTGGGTGT,-0.05
10,TCTGGCACGTGTTCGG,-0.11
11,TTGTACACGTGGGTCA,-0.1
12,ATATGCACGTGAATTG,0.06
13,ATCGTCACGTGCTGGT,-0.05
14,TTTTACACGTGTTAAG,0.19
15,GATAACACGTGTTGGG,0.11
16,TGTATCACGTGGAAAG,0.26
17,GAGGACACGTGATGTG,0.09
18,TGATACACGTGGTAGT,-0.11
19,TATGACACGTGGAATT,0.25
20,GATATCACGTGGAAGT,0.35
21,GGTTACACGTGGAGAA,0.18
22,CGTGGCACGTGGCAGG,-0.1
23,GTAGGCACGTGTAGCT,0
24,AGAAACACGTGTAGGG,-0.04
25,TGTTACACGTGATGCT,0.22
26,TGGGGCACGTGCATAT,-0.28

row,Sequence,relative binding free energy [kcal/mol]
1,GAATTCACGTGGTCGG,0.33
2,GGGACCACGTGTATTG,0.23
3,GGTTTCACGTGTCATT,0.24
4,GCTGGCACGTGATAGG,-0.03
5,TGTGCCACGTGCGGTG,-0.16
6,TGTGGCACGTGGTATG,-0.1
7,TGGATCACGTGGTGTA,0.17
8,GTAAACACGTGGATTT,0
9,TGCGCCACGTGGGTCG,-0.1
10,GAGCGCACGTGTGGTT,-0.11
11,TGGCTCACGTGTCTAT,0.34
12,GTGCGCACGTGGGAGA,-0.24
13,TGGCGCACGTGGTATG,-0.24
14,GTTGTCACGTGGGGAT,0.17
15,AGTAGCACGTGAAATT,0.27
16,TGATACACGTGCAGTG,-0.08
17,TTACTCACGTGGAGGG,0.15
18,TAGTTCACGTGGGAGA,0.29
19,GGAGTCACGTGAGTGG,0.41
20,TTGTTCACGTGGGGAC,0.05
21,TTGGCCACGTGCGTTG,-0.16
22,CTGGTCACGTGTTCTT,0.08
23,ATAGACACGTGGGGAT,-0.07
24,AGTGGCACGTGGCTGT,-0.1
25,GGGTGCACGTGGGGGC,-0.03
26,TTGATCACGTGTATTG,0.1

row,Sequence,relative binding free energy [kcal/mol]
1,CGTTGCACGTGGAGTG,0.06
2,GTTATCACGTGCGGGA,0.16
3,TAGCTCACGTGGTCGT,0.22
4,AGAGACACGTGGGCGT,-0.09
5,CGTGTCACGTGTAAGT,0.23
6,TGGTTCACGTGAAATG,0.39
7,ATTAACACGTGTGTGG,0.08
8,GCGGGCACGTGGCCGG,-0.25
9,ATGTACACGTGCGGAT,0.13
10,GCTTGCACGTGATAGT,0
11,CTTGACACGTGGGGGC,-0.2
12,TAATTCACGTGGCGGG,0.06
13,GGTGCCACGTGGGTAA,-0.13
14,GGGTCCACGTGAGGTT,0.4
15,GCTGTCACGTGTGTGT,0.05
16,TTAAGCACGTGGGCGT,-0.26
17,GGGGACACGTGTCCGG,0.16
18,CTTGTCACGTGAAAAT,0.38
19,TGTTGCACGTGGGGCG,-0.06
20,TGACGCACGTGGTGAG,-0.31
21,TTAAGCACGTGGTCTA,-0.15
22,ATTATCACGTGTTAGT,0.11
23,GGAGTCACGTGAAGTG,0.36
24,TAAGTCACGTGGGTTC,-0.05
25,CGTGACACGTGGGGAG,-0.11
26,ATGATCACGTGCTGGG,0.15

row,Sequence,relative binding free energy [kcal/mol]
1,TGTATCACGTGTGTAA,0.17
2,AGTAACACGTGAATTG,0.19
3,AGAATCACGTGATAGG,0.33
4,ATGGGCACGTGACCGG,-0.19
5,GGGCGCACGTGGTTAA,-0.04
6,CGTGACACGTGTAGAG,-0.01
7,GTGAGCACGTGCGGAT,-0.1
8,TGGTCCACGTGTAATG,0.03
9,TGGTCCACGTGTGTTA,0.04
10,CGGTGCACGTGAGGGC,0.17
11,TGGAACACGTGGGTGA,0.04
12,ATTGACACGTGGTATA,-0.07
13,TGACACACGTGTTGGG,0.05
14,TTAGTCACGTGGATAA,0.04
15,CTATTCACGTGGGAGT,0.22
16,TTTTTCACGTGGACGA,0.22
17,ATTTGCACGTGTAGAT,0.25
18,ATTGGCACGTGTGAAG,0
19,CGCGGCACGTGGGGCT,-0.25
20,GTAACCACGTGGTGTA,0.05
21,ACTTTCACGTGTGTTT,0.15
22,CGGGTCACGTGTGTCA,0.09
23,GTGGGCACGTGCCGTG,-0.21
24,GGGAGCACGTGCTGAG,-0.18
25,GGGTGCACGTGAAGGT,0.25
26,TTTCACACGTGGGGAT,0.05

row,Sequence,relative binding free energy [kcal/mol]
1,CCGAGCACGTGTGTGG,0
2,GATCTCACGTGTATGT,0.2
3,GTTGTCACGTGGTTAC,0.16
4,GTGGGCACGTGCTGGT,-0.15
5,GATTTCACGTGTTGTG,0.26
6,TGGTTCACGTGTAACA,0.3
7,GAAGTCACGTGGTAGT,0.07
8,AGCTGCACGTGGGGCT,-0.21
9,TAATGCACGTGTTAGT,-0.06
10,GATCTCACGTGTGGAT,0.3
11,CGGGCCACGTGGCGGA,-0.16
12,GGTAGCACGTGCTGGA,-0.09
13,TGTAGCACGTGCGAAG,-0.08
14,ACCTTCACGTGGGGGT,0.06
15,GGGGACACGTGTATCG,0.04
16,CTGTGCACGTGATATT,0.11
17,ACGTGCACGTGTAGGA,-0.02
18,TAACGCACGTGGGAGG,-0.3
19,TATAGCACGTGTAAGA,0.09
20,TGGCTCACGTGTTTAG,0.29
21,AGGGGCACGTGGAGGG,-0.14
22,ATGTGCACGTGTTGTA,0
23,TGGTACACGTGTATGT,0.1
24,GGGTGCACGTGGCCGT,-0.09
25,TAATTCACGTGTGGAT,0.26
26,GTCGGCACGTGTGTGA,0.04

row,Sequence,relative binding free energy [kcal/mol]
1,TTTGACACGTGGAATG,0.15
2,TCTATCACGTGTTGCG,0.25
3,TTTAGCACGTGGGGGA,-0.21
4,TGATGCACGTGGGGGA,-0.13
5,TTAATCACGTGGAGAG,0.15
6,TAAATCACGTGTTGTT,0.02
7,TCGTACACGTGATGAT,0.32
8,TGACGCACGTGAGTTG,0.12
9,TTTCTCACGTGGGTAA,0.2
10,AATCACACGTGGTAGT,0.14
11,ACGAGCACGTGTATGG,-0.02
12,GGAAGCACGTGCTTGT,-0.03
13,TATTACACGTGGGGTA,-0.13
14,GAGATCACGTGTTTAG,0.23
15,ACTGGCACGTGGGTTA,-0.21
16,GGGGGCACGTGTGCGG,-0.04
17,GATAGCACGTGTTTCT,-0.03
18,TCATGCACGTGCTGGG,-0.15
19,ATAGGCACGTGAGGAT,0.12
20,AAGTACACGTGGGGTT,-0.05
21,GGCATCACGTGTTGGG,0.19
22,TGAATCACGTGAATGT,0.43
